Over roughly 33,000 sequences, “E-score (-0.5 to 0.5)” has its median near -0.01; the highest 2% begin near 0.26. Some of the results follow.
Biological target: Ste12 (UniProt P13574)
Test: PBM E-score (8-mer binding enrichment) (E-score (-0.5 to 0.5)); higher = stronger / more preferred TF binding; most listed sequences are background and not binding sites
Details: protein concentration: 200 nM; construct: GST-DNA-binding domain
How it was run: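 PURExpress in vitro transcription/translation supplied GST-tagged yeast transcription factors, either full-length or DNA-binding domain. Applied at about 100-200 nM to universal all-10-mer Agilent arrays double-stranded by primer extension, the bound protein was detected with fluorescent anti-GST. E-scores, modified Wilcoxon-Mann-Whitney statistics, were given by the Universal PBM Analysis Suite to ungapped eight-base words pooled with their reverse complements after masliner normalisation.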

Sequence | PBM E-score
TACATCGA | 0.065
CAGTGACG | 0.111
GCTGTTAA | 0.11
ACGCGTTG | -0.158
ACAGCTAT | -0.279
CCGTCCTA | -0.138
AGTGTTCG | -0.0556
AATAACGA | -0.044
CGATACCC | -0.07
CATACATA | 0.124
AATCGAGT | 0.0323
AGACAGGC | -0.0382
AAGGTCCT | -0.0872
ATACACGA | -0.0503
CGACCACC | -0.0645
GATGTTTA | 0.191
ATAATAGA | 0.164
CTACCACC | -0.102
GTGACCCA | -0.0572
CGTGCACG | 0.126
ATCCGCGG | -0.0129
CCACCACC | -0.0881
AATTGAAT | 0.131
ACGGCCAA | -0.0542
AGCAACTC | -0.0843

Sequence | PBM E-score
CGTCTCGC | -0.207
AATCTGAA | 0.207
CAAGCAGG | -0.0299
CACAGACC | -0.0751
AATCTAGC | -0.102
GCATCAGC | 0.034
TAGCATCA | 0.0202
TCCCAAAA | 0.172
CTCCGTTC | -0.0781
ACAGATCA | -0.00243
GGCGTGGA | -0.0873
CACTCTCA | -0.0633
GAAATTAA | 0.294
CACATAGA | -0.0651
ATTTATCC | 0.181
TAAAATTA | 0.258
AGAACCCG | -0.0568
CCTTACGA | 0.0728
ATCTCTAA | 0.0731
TCATAACA | 0.1
CAGTTGGA | -0.0986
GACTATCA | -0.0567
ATCAAAAC | 0.197
CGTCGATA | -0.0294
CTGATTCA | 0.125

Sequence | PBM E-score
TCTCACAA | 0.162
AAAGGCTC | -0.025
ACCTCTTA | 0.135
AATATGCA | -0.0314
AATGAGCT | 0.0428
ATCGCAAC | 0.0102
GATGTAGC | -0.152
GGAAGTCC | -0.116
ATCAGACC | 0.102
CTGGACCC | -0.195
ACGATCTA | -0.0577
ACTCAAGC | -0.137
GATCGCAC | -0.0476
CGGTAAAG | 0.138
GACAGCAA | 0.0122
ACTGGTCG | -0.0963
ACGAGGGC | 0.0351
GCCTCATA | 0.113
AGTAATCC | -0.0677
AGGGCGAG | -0.143
ATGTTAAA | 0.217
CATTGCCC | -0.00338
ACGGATGG | 0.031
GAAGAGTC | -0.156
CCCTGATA | -0.105

Sequence | PBM E-score
GGACAGAA | 0.136
ATGAGCGC | -0.0454
AAAGATTA | 0.129
CGCTCTTC | 0.00173
GATTCCGA | 0.152
AAACTAGT | 0.123
GGACGATA | -0.13
CGTCGCGC | 0.00057
ATACGAGG | -0.0353
AGCCGCGA | 0.0422
CAGACTCA | -0.224
GTACACCA | -0.0485
ACTCGCCG | 0.198
CATCCCGC | 0.0907
ACACGAAG | 0.0728
AGGAAAGG | -0.348
ACCGTGAG | -0.132
CTAGATCA | -0.22
TTAAGGAA | 0.05
GATGCAAC | -0.0126
CGTTCAAC | -0.0534
CTTGCTGC | -0.0531
CGCAGTAC | 0.0244
GACGGGCA | -0.0533
AACTCGAA | 0.0844

Sequence | PBM E-score
AGCTCATC | -0.145
ACGTTATG | 0.0951
CATGGCTA | -0.02
GCTTATTA | 0.0471
TCGCCTAA | 0.017
CCTAACAG | 0.0231
ATGGCAAG | -0.0558
AGTATCAG | 0.00443
AAGAGCAT | -0.0195
ACATGGTG | 0.015
ACGGGACC | -0.233
CTCGAGGA | -0.0933
TAACGGAA | 0.148
CACTTGGG | -0.173
ACCCGGGT | 0.0381
AGCGCTTC | -0.00812
CAAAATGG | 0.189
CCCGAACG | -0.0742
CTAAAAGC | -0.0594
CCCCCTTC | -0.352
CAACATTC | -0.154
TGCCACAA | 0.0743
CGTTACGC | 0.0467
CTTTGAGA | 0.114
ATTCCGCA | 0.0429

Sequence | PBM E-score
AACCCATG | -0.0393
AAATGTTC | -0.0179
GACCCGCC | 0.121
ATCACATG | -0.0707
ACAACGGA | -0.0274
ATAAGTGA | 0.112
AGCTGCCC | 0.0132
AGCGTAGA | -0.0606
AATCAGGA | -0.0499
GCCAATAC | -0.0532
ACCACGAC | -0.0312
GCTTGCGA | 0.0839
ATTCATTG | -0.026
AAGCTCAC | -0.256
AGATGGCT | -0.0505
CCCCTCGG | -0.0763
CTACATAG | 0.121
CTGATCCC | -0.101
AGAGACTA | -0.105
CACAGCTC | -0.189
CAACTTCC | 0.0895
ACCTAGTG | -0.0568
AAATTCTG | 0.128
AAGATTGG | 0.0214
GGCACGAC | -0.113

Sequence | PBM E-score
CCGATCCC | -0.219
CGTCGTAA | -0.00425
CACAGATC | 0.026
AATGGGTC | 0.0131
TCTTGCCA | -0.122
TCAGGGAA | -0.032
GCGCCATA | -0.0446
AGTTTGCA | 0.0395
AAATGCAG | -0.0265
CATGTTTA | 0.199
ACCATAAT | 0.114
CCCAGGCG | 0.0763
CTCTTCTC | -0.161
CATTCACA | 0.197
ACTTGCTC | -0.136
ACCGACGT | -0.0609
ATCTACTG | 0.0446
GCACGTTA | 0.0558
CCGGCAAA | 0.116
AGCACAAT | -0.16
ACACCATC | -0.0878
GTAATAAA | 0.198
GTCAGTTA | -0.0112
CATGTGGG | -0.0199
AACGGTTC | -0.0882

Sequence | PBM E-score
CACAGTGA | 0.0133
ACCTGTTC | -0.0664
AAAGACAA | 0.00136
AGAATGCC | -0.151
GATTTGTA | 0.149
GTTGTTGA | 0.0783
CGCTTTAG | 0.0782
TAGAAATA | 0.152
AGTGAACA | -0.0685
TGGTCGAA | -0.294
CAAACCCG | 0.0369
AGTTAGCC | -0.167
GATCTATA | 0.122
CTGGCCAC | -0.0729
ACCTGTCC | -0.197
ACGGCCGA | -0.00423
CAGCGTCG | -0.0332
ATGTAAGG | -0.0204
CCAGAGCC | -0.0846
CGCTTCTC | 0.0454
GACTAATA | 0.021
GGAACTGA | -0.0249
ACGGATAG | 0.0338
CCTATTAG | -0.125
CCCCATAA | 0.0738

Sequence | PBM E-score
CCATATGC | -0.0488
CAGCATCG | -0.0328
AGGGATTC | -0.111
CGCTGGCA | 0.00792
CCACTATA | -0.0328
GTTTCCGA | 0.238
GCCGGAGC | 0.0404
CCCATTCG | 0.0016
GCAGGACC | -0.265
GAAATGAC | 0.189
AATTTTGC | 0.0426
AAGCCCTG | -0.194
AATATGCG | 0.0236
ATATTAAT | 0.298
ATCTAGCA | -0.0817
GGCGCTTA | 0.0142
ATTGCACC | 0.0905
CCTTGATA | 0.00987
TAAATTAA | 0.155
